The subject of data set [1] is CLL-1 positive U937 cells. In words: Flow cytometry binding of fusion proteins to U937 cells (FMC63-PE detection). Details: species or system human. The settings on record: purified fusion proteins, FIG. 14. Here is the method: The ability of an expressed biparatopic construct comprising the fusion protein containing a CD19 variant, an anti-CLL-1 scFv, and an anti-CLL-1 VHH (#357) to bind CLL-1 positive U937 cells was evaluated relative to the binding of an expressed construct containing a fusion protein comprised of a CD19 variant and an anti-CLL-1 VHH (#330) and an expressed construct containing a fusion protein comprised of a wild type CD19 and an anti-CLL-1 scFv (#186). […] Approximately 5×10^5 cells were aliquoted per sample. The cells were spun, washed with FB, and then suspended in 100 μl of the biparatopic or monospecific fusion protein dilution (supernatant or purified starting at 10 μg/ml) in FB. The cell/fusion protein mixture was incubated for 30 minutes at 4° C. and then washed 2× with FB. […] After washing 2× with FB, the cells were fixed with a final concentration of 1% PFA in PBS (Thermo Scientific) and then analyzed by flow cytometry (Accuri C6, Becton-Dickinson).
To further confirm the binding and cytotoxicity capabilities of an expressed biparatopic fusion protein comprising a CD19 variant, an anti-CLL-1 scFv, and an anti-CLL-1 VHH, a construct was generated with the same features as construct #357 but lacking the HIS tag. […] The cells were washed twice with FACS buffer, fixed with a final concentration of 1% PFA in PBS (Thermo Scientific) and then analyzed by flow cytometry. […]
For orientation: A flow cytometer gives signals particle by particle.

In the next data set the target is CLEC12A. Put plainly: ELISA binding of fusion proteins (FMC63 coat, HRP-anti-His detection). Details: species or system human. The settings on record: purified fusion protein, Table 8. As for the experimental part:
The binding of the biparatopic fusion proteins to CLEC12A was also examined by ELISA. […] The plate was left to incubate overnight at 4° C. The coated plate was blocked with TBS/0.3% nonfat dry milk (NFD) for 60 minutes at RT.

A further data set has as its system U937 cells. Put plainly: CAR-CD19 T cell cytotoxicity bridged by purified fusion protein, luciferase U937 cells. In kind it is cell-based. The settings on record: E:T 10:1, 48 hours, FIG. 16C. As for the experimental part: Several fusion proteins were purified and evaluated for their ability to bridge killing of CLL-1 expressing cells by CAR-T cells that target CD19. Luciferase was introduced to U937 cells and […] by lentiviral transduction. On day 1 U937 cells were seeded at 1×10^4 per well of a round-bottom 96 well plate (Thermo Fisher) or 293T-CLL-1 cells were seeded in a flat bottom plate in cell culture media (RPMI 1640, 10% FBS). On day 2, the fusion proteins #357, #330 and #321 were added at 0.2 μg/ml (20 ng/well) with serial 3 fold dilutions where indicated, then left to incubate at 37° C. for 1 hour using the cell culture incubator. […]
On day 3, the plate was spun at 550 RCF for 5 minutes and rinsed with PBS then spun again to remove the PBS. […] The injector added 100 μl of Luciferase assay reagent per well, then the well was read immediately. The plate was then advanced to the next well for a repeat of the inject-then-read process. […]
The % cell death (aka cytotoxicity) was calculated as follows:
% killing=[1−luc reading (experimental wells)/luc reading (tumor cells without CAR T cells)]×100. […]
To test cytoxicity, luciferase labeled Molm14 or U937 cells were targeted for cytotoxic killing using a CAR19 T cell preparation and the purified proteins #330, #410 and #440 added in a dose titration. […] The plates were read in a luminometer with an injector (Glomax Multi Detection System, Promega). […]

Data set [2] concerns CLEC12A-positive cell line AML5. In words: Flow cytometry binding of fusion proteins to OCI-AML-5 cells. Details: species or system human. The settings on record: FIG. 16A. As for the experimental part: To further confirm the binding and cytotoxicity capabilities of an expressed biparatopic fusion protein comprising a CD19 variant, an anti-CLL-1 scFv, and an anti-CLL-1 VHH, a construct was generated with the same features as construct #357 but lacking the HIS tag. U937 (ATCC) and OCI-AML-5 (DSMZ) cells were cultured as detailed by the supplier. The cells were washed with PBS, suspended in 50 μl FACS buffer (PBS+1% BSA and 0.1% sodium azide) and blocked with human Fc block (Becton Dickinson) at room temperature for 10 minutes. Then, 50 μl of the fusion protein, #357 or #518, starting at 1 μg/ml with 3 fold dilutions in FACS buffer was added. The cell/fusion protein mixture was incubated for 30 minutes at 4° C. and then washed twice with FACS buffer. The cells were suspended in 100 μl of FACS buffer, stained with FMC63-PE (Millipore 5 l/test), and incubated for 30 minutes at 4° C. The cells were washed twice with FACS buffer, fixed with a final concentration of 1% PFA in PBS (Thermo Scientific) and then analyzed by flow cytometry.

For the next data set, the target named is T1, CLEC12A K form (Homo sapiens, UniProt Q5QGZ9).
T1 construct: transfected with full-length CLEC12A (UniProt Q5QGZ9-1) cDNAs; host or cells: HEK-293T
T1 sequence (Q5QGZ9 1-275 isoform Q5QGZ9-1): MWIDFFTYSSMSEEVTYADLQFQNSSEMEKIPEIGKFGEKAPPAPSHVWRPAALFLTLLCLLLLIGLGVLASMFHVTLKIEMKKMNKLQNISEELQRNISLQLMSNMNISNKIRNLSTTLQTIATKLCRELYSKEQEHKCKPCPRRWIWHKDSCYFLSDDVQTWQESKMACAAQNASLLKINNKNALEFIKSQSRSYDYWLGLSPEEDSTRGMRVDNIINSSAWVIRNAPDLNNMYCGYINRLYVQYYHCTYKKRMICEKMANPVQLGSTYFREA
In words: Flow cytometry binding to HEK-293T cells transfected with CLEC12A amino acid 254 K version. The settings on record: FIG. 19. As for the experimental part:
(§1) Given the unique binding properties of VHH clone 2H3 relative to the anti-CLEC12A scFv we tested the binding properties of a biparatopic fusion protein containing both the VHH clone 2H3 and an anti-CLEC12A scFv. HEK-293T cells were transfected with full-length CLEC12A (UniProt Q5QGZ9-1) cDNAs expressing the amino acid 254 “K” version of CLEC12A (GenScript) or a version with “Q” at this position generated by mutagenesis. The cells were removed with Accutase and washed with PBS, suspended in 50 μL FACS buffer (FB, PBS+1% BSA and 0.1% sodium azide) and blocked with human Fc block (Becton Dickinson) at room temperature for 10 minutes. Then, 50 μl of the purified fusion proteins #186, #330 or #357 diluted in FACS buffer (starting at 3 μg/ml with 3 fold dilutions) were added. The cell/fusion protein mixture was incubated for 30 minutes at 4° C. and then washed twice with FACS buffer. The cells were suspended in 100 μl of FACS buffer, stained with HIB19-PE (BioLegend […]), and incubated for 30 minutes at 4° C. The cells were washed twice with FACS buffer, fixed with a final concentration of 1% PFA in PBS (Thermo Scientific) and then analyzed by flow cytometry.

In the next data set the target is T2, CLEC12A Q form (Homo sapiens, UniProt Q5QGZ9, K244Q).
T2 construct: transfected with full-length CLEC12A (UniProt Q5QGZ9-1) cDNAs; expressed in transfected cells; host or cells: HEK-293T
T2 sequence (Q5QGZ9 1-275 isoform Q5QGZ9-1 K254Q): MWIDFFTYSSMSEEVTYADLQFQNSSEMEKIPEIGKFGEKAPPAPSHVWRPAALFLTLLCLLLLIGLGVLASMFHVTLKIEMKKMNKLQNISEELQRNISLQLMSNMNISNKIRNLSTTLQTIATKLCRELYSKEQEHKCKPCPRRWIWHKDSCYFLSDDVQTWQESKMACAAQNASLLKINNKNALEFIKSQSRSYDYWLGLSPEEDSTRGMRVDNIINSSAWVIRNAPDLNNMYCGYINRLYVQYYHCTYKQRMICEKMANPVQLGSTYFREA
Put plainly: Flow cytometry binding to HEK-293T cells transfected with CLEC12A amino acid 254 Q version. The settings on record: FIG. 19. As for the experimental part:
as §1

These results are taken from US20220387487A1, “COMPOSITIONS AND METHODS FOR TREATMENT OF CANCER” (Aleta Biotherapeutics Inc., priority 2019, published 2022).

B1: #357: biparatopic fusion protein containing a CD19 variant, an anti-CLL-1 scFv, and an anti-CLL-1 VHH; SEQ ID NO:307 (protein)
chain: MEFGLSWVFLVALFRGVQCDMAQVQLQESGPGLVKPSETLSLTCVVSGGSISSSNWWSWVRQPPGKGLEWIGEIYHSGSPDYNPSLKSRVTISVDKSRNQFSLKLSSVTAADTAVYYCAKVSTGGFFDYWGQGTLVTVSSGGGGSGGGGSGGGGSEIELTQSPSSLSASVGDRVTIT[about 80 residues left out]FGPGTKVEIKRTGGGGSGGGGSGGGGSGGGGSQVQLQESGGGLVQAGGSLRLSCVASGSIRSINVMGWYRQAPGKQRELVAACASDGNTYYADSVKGRFTISRDNAEKTVYLQMNNLKPDDTAVYYCDANSRGNYYSGQGTQVTVSSTSGPGGQGAGGGGSGGGGSGGGGSGGGGSPEEPLVVKVEEGDTAALWCLKGTSDGPTQQLTWSRESPLKPFLKYSLGVPGLGVHVRPDAISVVIRNVSQQMGGFYLCQPGPPSEKAWQPGWTVNVEGSGELFRWNVSDLGGLGCGLKNRSSEGPSSPSGKLMSPKLYVWAKDRPEIWEGEPPCLPPRDSLNQSLSRDLTVAPGSTLWLSCGVPPDSVSRGPLSWTHVHPKGPKSLLSLELKDDRPARDMWVMGTSLMLPRATAQDAGKWYCHRGNLTMSFHLEITARPSRHHHHHH
Consider B1, for which, in data set [1], the “binding to U937 cells, comparison” value is given as “binds better than the fusion protein comprising an anti-CLL-1 VHH”. This molecule also showed an EC50 on CLEC12A of 0.01 nM. For the same molecule, the “bridging of CAR-CD19 T cells to U937 target cells, cytotoxicity” value in the data set with U937 cells is given as “potent cytotoxicity”. Also, the “binding by FACS on AML5, HIS-tagged versus no HIS-tag” value in data set [2] is “equivalent binding”. In addition, the “binding to the K form of CLEC12A” value with CLEC12A K form was “binds very well”. For the same molecule, the “binding to the Q form of CLEC12A” value in the data set with CLEC12A Q form is “binds very well”.

The term EC50 denotes the concentration giving half of the maximal effect. A higher EC50 goes with lower potency in that assay.
